± gives the uncertainty stated by the source. In all, about 9,900 compounds were measured (“viability index relative to DMSO control”: median about 1, lowest 2% from about 0.85 on). The list shows a part of the results.
The compounds below were run on Plasmodium falciparum NF54 stage V gametocytes (assay: viability index relative to DMSO control (fraction); higher = less gametocyte killing). Settings: 2.5 µM, library set: Broad Institute DOS, incubation time: 72 h.
Experimental: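 Broad DOS informer set and blood-stage-active DOS compounds screened in duplicate at 2.5 µM against P. falciparum NF54 stage V gametocytes with the serum-free one-step SaLSSA (1536-well): 72 h at 37 °C under low oxygen, then saponin lysis and MitoTracker Red CMXRos staining, with high-content imaging. Viability index = viable-object count divided by the plate mean of DMSO wells (0 = killed, about 1 = inactive).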

| SMILES | viability index |
| --- | --- |
| COC(=O)[C@@H]1N[C@@H]2c3ccc(C4=CCCCC4)c(=O)n3C[C@@H]2[C@H]1CO | 0.939 ± 0.038 |
| O=C(NC1CCCC1)N1[C@@H]2CNC[C@H]1[C@H]2c1ccc(-c2cccnc2)cc1 | 1.02 ± 0.12 |
| CN(C)C(=O)c1cccc(-c2ccc3c(c2)[C@@H]2[C@@H](CCN2C(=O)c2cnccn2)[C@@H](CO)N3)c1 | 1.12 ± 0.032 |
| CO[C@@H]1CC[C@H]2CCOc3ccc(C#N)cc3C(=O)N(C)[C@H](C)C(=O)N(C)C[C@H]1O2 | 0.966 ± 0.051 |
| COc1ccc(S(=O)(=O)N2C[C@@H](O)COC[C@@H]3O[C@@H](CC(=O)N[C@@H]4CCN(Cc5ccccc5)C4)CC[C@H]32)cc1 | 1.06 ± 0.032 |
| COC(=O)C[C@@H]1CC[C@H]2[C@@H](COC[C@@H](O)CN2S(=O)(=O)c2ccccc2OC)O1 | 1.02 ± 0.034 |
| O=C(C[C@@H]1CC[C@H]2[C@@H](COC[C@@H](O)CN2C(=O)Nc2ccc(F)cc2)O1)NC1CCC1 | 1 ± 0.1 |
| C/C=C/c1ccc([C@@H]2[C@@H]3CN(C(=O)NC4CCCCC4)C[C@H]2N3)cc1 | 1.06 ± 0.031 |
| CO[C@H]1CC[C@@H]2CCN(C)C(=O)[C@H](C)N(C)C(=O)c3cccc(C#N)c3OC[C@H]1O2 | 1.08 ± 0.1 |
| COc1ccc2c3c([C@@H](CO)N(C[C@]33CN(C3)S(=O)(=O)c3cn(C)cn3)C(=O)Nc3ccc(F)cc3)n(C)c2c1 | 1.067 ± 0.0049 |
| C[C@@H]1CN([C@@H](C)CO)S(=O)(=O)c2ccc(-c3cccc(C#N)c3)cc2O[C@@H]1CN(C)C(=O)c1ccccc1 | 1 ± 0.055 |
| O=C(C[C@H]1CC[C@H]2[C@@H](COC[C@H](O)CN2C(=O)c2cnccn2)O1)NCc1ccc(Cl)cc1 | 0.993 ± 0.057 |
| N#C[C@@H]1[C@@H](c2ccccc2C2=CCCCC2)[C@@H](CO)N1C(=O)CN1CCOCC1 | 1.12 ± 0.031 |
| COc1ccccc1-c1ccccc1[C@@H]1[C@H](C#N)N(C(=O)C2CCOCC2)[C@H]1CO | 1.11 ± 0.045 |
| COc1ccccc1NC(=O)N[C@@H]1CC[C@@H](CCNS(=O)(=O)c2ccc(Cl)cc2)O[C@H]1CO | 1.12 ± 0.17 |
| C[C@@H]1CN([C@H](C)CO)C(=O)c2cc(N(C)C)ccc2O[C@@H](C)CCCCO[C@@H]1CN(C)C(=O)NC1CCCCC1 | 1 ± 0.023 |
| C[C@H](CO)N1C[C@H](C)[C@@H](CN(C)C(=O)c2ccc3ccn(C)c3c2)OCc2cnnn2CCCC1=O | 0.986 ± 0.043 |
| CO[C@H](CN(C)C(=O)c1cnccn1)[C@H](C)CN([C@@H](C)CO)S(=O)(=O)c1ccccc1 | 0.995 ± 0.057 |
| COc1ccc(NC(=O)N2CC(=O)N3[C@H](CO)[C@@H](c4ccc(Br)cc4)[C@H]3C2)cc1 | 0.943 ± 0.082 |
| CN(C)C(=O)C[C@H]1C=C[C@H](NC(=O)c2ccc(F)cc2)[C@@H](CO)O1 | 1.1 ± 0.2 |
| O=C(C[C@H]1CC[C@H]2[C@@H](COC[C@@H](O)CN2C(=O)c2cnccn2)O1)N1CCN(c2ccccc2)CC1 | 1.02 ± 0.058 |
| Cc1ccccc1S(=O)(=O)Nc1ccc2c(c1)C(=O)N(C)[C@@H]1CC[C@@H](CC(=O)O)O[C@H]1CO2 | 1.05 ± 0.078 |
| COc1ccc(C#Cc2ccc3c(c2)[C@@H]2[C@@H](CCN2Cc2nccs2)[C@@H](CO)N3)cc1 | 1.08 ± 0.051 |

| SMILES | viability index |
| --- | --- |
| CS(=O)(=O)N1Cc2cc(C(=O)O)nc(-c3cccc(-c4ccccc4F)c3)c2[C@H]1CCO | 1.06 ± 0.075 |
| C[C@H]1CN([C@@H](C)CO)C(=O)CCCn2cc(nn2)CO[C@@H]1CN(C)Cc1ccccc1 | 1.03 ± 0.042 |
| C[C@@H]1CCCCO[C@H](CN(C)C(=O)CCCN(C)C)[C@H](C)CN([C@@H](C)CO)C(=O)c2cc(NC(=O)Nc3ccc4c(c3)OCO4)ccc2O1 | 1.0277 ± 0.00053 |
| CN(C)C(=O)c1ccc(-c2ccccc2[C@@H]2[C@@H](CO)N(C(=O)C3CC3)[C@H]2C#N)cc1 | 1.08 ± 0.049 |
| CO[C@H]1CN(C)C(=O)c2cc(NC(=O)c3ccc(F)cc3)ccc2OC[C@H](C)N(C(=O)CC2CC2)C[C@@H]1C | 1.11 ± 0.035 |
| CCCNC(=O)Nc1ccc2c(c1)C(=O)N(C)C[C@@H](OC)[C@@H](C)CN(C)[C@H](C)CO2 | 0.9587 ± 0.0028 |
| COc1ccc2c3c([C@H](CO)N(C[C@]33CN(C3)S(=O)(=O)c3ccccc3)C(C)=O)n(C)c2c1 | 1.016 ± 0.0073 |
| O=C(CCN1CCCCC1)N[C@@H]1CC[C@H](CCn2cc(-c3cccc(F)c3)nn2)O[C@@H]1CO | 1.05 ± 0.16 |
| N#C[C@H]1[C@@H](c2ccccc2-c2cccc(F)c2)[C@H](CO)N1S(=O)(=O)c1cccc(F)c1 | 1.17 ± 0.1 |
| CO[C@H](CN(C)S(=O)(=O)c1ccc(F)cc1)[C@H](C)CN(Cc1ccccc1Cl)[C@@H](C)CO | 0.978 ± 0.041 |
| CN1C(=O)c2cc(NC(=O)Cc3cccs3)ccc2OC[C@@H]2O[C@H](CC(=O)NCC3CCCCC3)CC[C@@H]21 | 1.13 ± 0.062 |
| C[C@@H]1CN([C@H](C)CO)C(=O)c2ccccc2-c2ccccc2CO[C@@H]1CN(C)C(=O)[C@H]1CCCN1C | 0.989 ± 0.11 |
| CO[C@@H]1CC[C@@H]2CCN(C)C(=O)[C@@H](C)N(C)C(=O)c3cccc(C#N)c3OC[C@@H]1O2 | 1.11 ± 0.048 |
| O=C(C1CCOCC1)N1CC(=O)N2[C@H](C1)[C@H](c1ccc(-c3cccnc3)cc1)[C@@H]2CO | 1.01 ± 0.13 |
| COc1ccc2c3c([nH]c2c1)[C@@H](CO)N(C[C@]31CCN(CC1)S(C)(=O)=O)C(=O)NC1CCCC1 | 1.01 ± 0.02 |
| COc1cccc(S(=O)(=O)N(C)C[C@H]2OCc3ccccc3-c3c(n(C)c4ccccc34)C(=O)N([C@@H](C)CO)C[C@@H]2C)c1 | 0.956 ± 0.013 |
| C[C@H](CO)N1C[C@H](C)[C@@H](CN(C)C(=O)CCC(F)(F)F)OCc2cnnn2CCCC1=O | 1.02 ± 0.073 |
| O=C(C[C@H]1CC[C@@H]2[C@H](COC[C@H](O)CN2C(=O)c2cnccn2)O1)N1CCN(c2ccccc2)CC1 | 1.024 ± 0.0091 |
| C/C=C/c1ccccc1[C@H]1[C@@H](CO)N(c2nc(CC)cs2)[C@H]1C#N | 1.08 ± 0.065 |
| O=C(c1ccc2c(c1)OCO2)N1C[C@@H]2N[C@H](C1)[C@@H]2c1ccc(/C=C/c2ccccc2)cc1 | 0.731 ± 0.086 |
| CO[C@@H]1CN(C)C(=O)c2ccc(NC(C)=O)cc2OC[C@H](C)N(Cc2cccc(F)c2)C[C@H]1C | 1.03 ± 0.072 |
| COCC(=O)Nc1ccc2c(c1)[C@@H]1C[C@H](CC(=O)N[C@H](C)c3ccccc3)O[C@@H](CO)[C@@H]1O2 | 0.982 ± 0.077 |
| C[C@H](CO)N1C[C@H](C)[C@H](CN(C)C(=O)Nc2cccc(Cl)c2Cl)OCc2ccccc2-c2ccccc2C1=O | 0.926 ± 0.049 |

From the supplement of paper PMC4723716
